54 molecules from article PMC4336329 (PLoS ONE, 2015) can be followed below.

Each structure is given as a SMILES string. Screen size: about 310,000 compounds; about 14,000 (4.5%) showed an effect of 50% or more. Effects have a minus sign here. Some of the results follow.
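Note: peak tail current of the secondary pulse compared with the same well before compound.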

The test deals with human ether-à-go-go-related gene (hERG) potassium channel (human, UniProt Q12809). Put plainly: primary screen, population patch clamp on CHO cells stably expressing hERG.
Chain of human ether-à-go-go-related gene (hERG) potassium channel (Q12809 whole entry, looked up): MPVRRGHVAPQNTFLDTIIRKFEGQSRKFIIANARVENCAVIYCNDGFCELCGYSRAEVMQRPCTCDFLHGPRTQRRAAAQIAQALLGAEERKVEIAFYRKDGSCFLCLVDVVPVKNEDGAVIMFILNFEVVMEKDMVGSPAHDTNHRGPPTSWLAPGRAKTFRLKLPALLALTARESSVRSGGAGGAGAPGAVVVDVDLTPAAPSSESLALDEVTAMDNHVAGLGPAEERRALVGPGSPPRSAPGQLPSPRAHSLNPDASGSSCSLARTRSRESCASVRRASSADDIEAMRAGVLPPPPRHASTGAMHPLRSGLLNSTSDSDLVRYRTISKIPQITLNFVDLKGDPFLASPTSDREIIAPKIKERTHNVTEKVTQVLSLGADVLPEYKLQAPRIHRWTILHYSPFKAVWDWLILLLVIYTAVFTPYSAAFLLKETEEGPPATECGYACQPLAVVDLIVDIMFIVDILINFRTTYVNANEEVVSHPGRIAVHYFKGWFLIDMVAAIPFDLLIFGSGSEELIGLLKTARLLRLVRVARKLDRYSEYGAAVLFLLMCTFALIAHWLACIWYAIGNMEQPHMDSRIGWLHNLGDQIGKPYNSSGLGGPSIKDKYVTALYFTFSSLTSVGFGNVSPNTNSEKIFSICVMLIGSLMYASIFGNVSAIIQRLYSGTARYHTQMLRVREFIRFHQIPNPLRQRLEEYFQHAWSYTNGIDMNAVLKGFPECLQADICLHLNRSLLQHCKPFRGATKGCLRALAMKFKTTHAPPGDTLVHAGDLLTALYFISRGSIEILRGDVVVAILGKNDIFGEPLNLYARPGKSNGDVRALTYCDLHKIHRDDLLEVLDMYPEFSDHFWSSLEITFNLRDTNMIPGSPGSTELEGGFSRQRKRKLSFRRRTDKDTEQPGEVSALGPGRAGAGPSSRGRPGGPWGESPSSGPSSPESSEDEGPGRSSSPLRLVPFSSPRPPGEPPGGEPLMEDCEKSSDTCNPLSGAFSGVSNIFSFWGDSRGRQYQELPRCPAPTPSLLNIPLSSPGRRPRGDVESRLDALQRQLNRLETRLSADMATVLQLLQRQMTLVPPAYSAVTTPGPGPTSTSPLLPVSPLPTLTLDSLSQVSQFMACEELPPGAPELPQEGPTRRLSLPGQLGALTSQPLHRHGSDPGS
With `CCOc1ccc(CN2CCN(c3ncnc4scc(-c5ccccc5)c34)CC2)cc1`, the “hERG current change (%, negative = inhibition) at 10uM” value is recorded as -75.3%. In the case of `Cc1ccc(C)c(-n2cc(CNCCc3cnccn3)c(-c3ccccc3)n2)c1`, the “hERG current change (%, negative = inhibition) at 10uM” value is listed as -67.1%.

On to `CCO[C@H]1OC(C(=O)NCc2nc3ccccc3[nH]2)=C[C@@H](C2CCCCC2)[C@@H]1CCCO`, for which the “hERG current change (%, negative = inhibition) at 10uM” value was -4.56%. With `Nc1nc(SCCOc2ccccc2)n[nH]1`, the “hERG current change (%, negative = inhibition) at 10uM” value was determined as 4.5%.

As to `Cc1[nH]c(=O)[nH]c(=O)c1NC(=O)c1ccc(OC(C)C)cc1`, the “hERG current change (%, negative = inhibition) at 10uM” value was determined as 8.07%. On to `CC(=O)Nc1ccc(OCC(=O)NCc2ccc3c(c2)OCO3)cc1`, for which the “hERG current change (%, negative = inhibition) at 10uM” value is recorded as -3.38%. Next, `CCOc1cc(/C=C2\C(=N)N3N=C(C)SC3=NC2=O)ccc1OCCOc1ccccc1`: 4.62%. Consider `COC(=O)C1=C(c2ccccc2OCc2ccccc2)C[C@@H]2CC[C@H]1N2C(=O)NCCN1CCOCC1`, for which the “hERG current change (%, negative = inhibition) at 10uM” value came to 1.62%.

`Cn1c2ccccc2n2c(=O)c(=O)n(CC(=O)N3CCCc4ccccc43)nc12`: the “hERG current change (%, negative = inhibition) at 10uM” value is -15.8%. With `COc1ccc(C(=O)/C=C/Nc2ccc([N+](=O)[O-])cc2)cc1` the figure was 2.29%.

With `CC(C)c1ccc2c(c1)C(c1ccc(N3CCOCC3)cc1)=NNC(c1cccs1)=N2`, the “hERG current change (%, negative = inhibition) at 10uM” value is given as -4.89%. With `COc1c(C)cc(C(=O)C2CCCN(S(=O)(=O)N(C)C)C2)cc1C` (stereo not drawn), the “hERG current change (%, negative = inhibition) at 10uM” value is -66.5%. Regarding `COc1cccc(N2CCN(C(=O)c3cccc(NC4=NC5CS(=O)(=O)CC5S4)c3)CC2)c1` (stereo not drawn), the “hERG current change (%, negative = inhibition) at 10uM” value is 10.2%.

With `O=C(COc1ccc(Br)cc1F)N1CCN(c2ncccn2)CC1`, the “hERG current change (%, negative = inhibition) at 10uM” value is recorded as -33.8%.

As to `Oc1ccc(Br)cc1CN1CCCCCCC1`, the “hERG current change (%, negative = inhibition) at 10uM” value is on record as -47.6%.

Consider `Nc1nc(SCc2ccc(Cl)cc2)[nH]c(=O)c1-c1ccccc1`, for which the “hERG current change (%, negative = inhibition) at 10uM” value was -1.24%. With `O=C(COc1cc(F)ccc1[N+](=O)[O-])Nc1ccc2c(c1)OCO2` the figure was 1.25%; with `O=c1c2ccc(Cl)cc2nc2n1CC/C2=C\c1cccc(O)c1`, 13.8%. With `C=CCn1c(SCC(=O)Nc2nc(C)cs2)nnc1C(C)NC(=O)c1ccccc1Cl` (stereo not drawn) the figure was -13.6%.

For `Cc1ccc(C)c(S(=O)(=O)N2CCCC2CNC(=O)C(=O)NCCN2CCOCC2)c1` (stereo not drawn), the “hERG current change (%, negative = inhibition) at 10uM” value turned out to be 3.93%. As to `COc1cccc(OC)c1OCCN(C)C.O=C(O)C(=O)O`, the “hERG current change (%, negative = inhibition) at 10uM” value amounted to 1.44%. Take `Cc1nc(N2CCOCC2)c2c(C)c(C(=O)Nc3ccc(F)cc3F)sc2n1`: the “hERG current change (%, negative = inhibition) at 10uM” value was -10.3%. For `COC(=O)c1nn(-c2cccc(Cl)c2)cc(OC)c1=O`, the “hERG current change (%, negative = inhibition) at 10uM” value came to 10.4%. For `O=C(CN1C(=O)C2C3C=CC(C3)C2C1=O)NCCc1ccccc1Cl` (stereo not drawn), the “hERG current change (%, negative = inhibition) at 10uM” value is on record as 10.6%. With `CCOc1ccccc1CNS(=O)(=O)c1cc(-c2cc(C)no2)ccc1OC`, the “hERG current change (%, negative = inhibition) at 10uM” value was -18.4%. Next, `COc1ccc(N2CCN(C(=O)c3cccc(NC4=NC5CS(=O)(=O)CC5S4)c3)CC2)cc1` (stereo not drawn): 19%; `CC(=O)O.COc1cc2c(C#N)c(N3CCCC3)nc(N)c2c(N)n1`: -10.2%; `CCN(CC1CCCO1)C(=O)c1cc(COc2ccccc2SC)on1` (stereo not drawn): -85.6%. With `O=C(COc1ccccc1Cl)N1CCCC(N2CCN(c3ccc(F)cc3)CC2)C1` (stereo not drawn) the figure was -65.8%; with `O=C(N/N=C/c1ccc(OC(=O)c2ccccc2)c([N+](=O)[O-])c1)c1ccc(O)cc1`, 16.4%. With `Cc1ccc(-n2c(=S)[nH]c3sc4c(c3c2=O)CCC4)cc1` the figure was 26.6%; with `CCCCn1c(N)c(N(CCOC)C(=O)c2ccc(-c3ccc(C(C)=O)cc3)o2)c(=O)[nH]c1=O`, 1.35%; with `C=CCN(C(=O)C1=NN(C2CCS(=O)(=O)C2)C(=O)CC1)c1nc(-c2ccc([N+](=O)[O-])cc2)cs1` (stereo not drawn), -63.5%. Regarding `COc1ccc(CC(=O)OCC(=O)Nc2ccc3[nH]c(=O)[nH]c3c2)cc1`, the “hERG current change (%, negative = inhibition) at 10uM” value was 7.97%.

On to `CC1CCN(C(=O)c2ccc3c(c2)NC(=O)/C(=C/c2ccccc2)S3)CC1`, for which the “hERG current change (%, negative = inhibition) at 10uM” value turned out to be 11%.

For `Cc1ccccc1/C=C1\Sc2ccc(C(=O)N3CCN(c4ccccn4)CC3)cc2N(C)C1=O`, the “hERG current change (%, negative = inhibition) at 10uM” value was -26.1%. In the case of `CCc1nc2ccccc2n1CC(C)C(=O)O.Cl` (stereo not drawn), the “hERG current change (%, negative = inhibition) at 10uM” value is recorded as 7.67%. In the case of `Cc1ccc(NC(=O)COc2cccnc2[N+](=O)[O-])cc1S(=O)(=O)N1CCOCC1`, the “hERG current change (%, negative = inhibition) at 10uM” value was -21.1%. Next, `COc1ccc(/C=N/NC(=S)NCc2ccccc2)cc1OC`: 0.0154%. In the case of `Cc1cc(C)nc(NC(=O)Cc2ccc(Cl)cc2)c1`, the “hERG current change (%, negative = inhibition) at 10uM” value is recorded as -5.94%. As for `CC(C)(C)C1CCC2(CC1)C(C#N)=C(SCC(=O)NC1CCCCC1)NC(=O)C2C#N` (stereo not drawn), the “hERG current change (%, negative = inhibition) at 10uM” value is listed as -6.68%.

As to `Cc1cc(C)cc(NC(=S)N2CCN(CCO)CC2)c1`, the “hERG current change (%, negative = inhibition) at 10uM” value was determined as 14.3%. Next, `Cc1cc(-c2ccc(C)c(S(=O)(=O)NCCN3CCC(C)CC3)c2)on1`: -12.8%.

As to `CC(=O)Nc1ccc(NC(=O)CSc2ccc3nnc(CCNS(=O)(=O)c4ccc(C)cc4)n3n2)cc1`, the “hERG current change (%, negative = inhibition) at 10uM” value is recorded as -43.1%. For the molecule `Cc1cc(C)c(OCCCNC2CCCC2)c(Br)c1.O=C(O)C(=O)O`, the “hERG current change (%, negative = inhibition) at 10uM” value is reported as -34.5%. Next, `COc1ccc2oc(=N)c(C(=O)NCc3ccccc3)cc2c1`: 6.24%; `Cc1ccc(CNC(=O)CS(=O)(=O)CC(=O)O)cc1`: 18.3%. With `CC(=O)Nc1cc(C(=O)N2CCCC2)ccc1S(=O)(=O)c1ccc(Cl)cc1`, the “hERG current change (%, negative = inhibition) at 10uM” value amounted to 4.95%. As for `CCCS(=O)(=O)N1CCN(C(=O)COc2ccc(OC)cc2)CC1.O=C(O)C(=O)O`, the “hERG current change (%, negative = inhibition) at 10uM” value was 3.39%. With `O=C(NNC(=O)c1oc2ccccc2c1-n1cccc1)c1ccco1` the figure was 11.2%; with `COc1ccccc1NC(=S)NCc1cccs1`, -5.91%; with `NC(=S)N=Nc1c(O)[nH]c2ccc(F)cc12`, 12.8%. On to `COc1ccc(C=O)cc1O`, for which the “hERG current change (%, negative = inhibition) at 10uM” value was 1.96%. Next, `CCOc1ccc(NC(=O)c2ccc(N3CC4CC(C3)c3cccc(=O)n3C4)c(N)c2)cc1` (stereo not drawn): -21.7%.
